# From the supplement of paper PMC3334620
# Over roughly 33,000 sequences, “E-score (-0.5 to 0.5)” has its median near -0.021; the highest 2% begin near 0.32. This is one part of the list.
# Biological target: T1, Zap1 (UniProt P47043)
# T1 sequence: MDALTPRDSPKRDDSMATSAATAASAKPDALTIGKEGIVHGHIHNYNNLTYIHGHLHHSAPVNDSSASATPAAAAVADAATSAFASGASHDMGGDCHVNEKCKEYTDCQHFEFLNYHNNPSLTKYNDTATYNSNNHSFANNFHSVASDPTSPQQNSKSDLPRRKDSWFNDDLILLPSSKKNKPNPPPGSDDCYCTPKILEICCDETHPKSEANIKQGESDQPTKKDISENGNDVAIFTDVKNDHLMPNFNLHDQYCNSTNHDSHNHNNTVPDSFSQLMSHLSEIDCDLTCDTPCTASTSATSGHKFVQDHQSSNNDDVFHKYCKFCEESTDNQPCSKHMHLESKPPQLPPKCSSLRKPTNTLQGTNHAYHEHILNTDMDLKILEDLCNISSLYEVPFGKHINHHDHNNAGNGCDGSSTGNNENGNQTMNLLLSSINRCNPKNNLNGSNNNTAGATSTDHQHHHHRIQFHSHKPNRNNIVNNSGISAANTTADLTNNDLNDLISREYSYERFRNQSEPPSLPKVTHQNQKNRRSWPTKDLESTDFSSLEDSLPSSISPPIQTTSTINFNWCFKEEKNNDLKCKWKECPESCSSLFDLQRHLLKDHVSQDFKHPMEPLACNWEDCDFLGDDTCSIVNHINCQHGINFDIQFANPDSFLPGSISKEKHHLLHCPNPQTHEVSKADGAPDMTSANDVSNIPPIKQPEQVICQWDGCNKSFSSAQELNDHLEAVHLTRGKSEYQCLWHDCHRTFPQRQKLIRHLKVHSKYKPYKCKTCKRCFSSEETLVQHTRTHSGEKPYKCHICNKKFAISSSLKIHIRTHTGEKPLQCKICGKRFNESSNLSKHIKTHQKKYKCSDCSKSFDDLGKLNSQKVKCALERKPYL
# Assay: PBM E-score (8-mer binding enrichment) (E-score (-0.5 to 0.5)); higher = stronger / more preferred TF binding; most listed sequences are background and not binding sites
# Conditions: protein concentration: 200 nM; construct: GST-full length
# Outline: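 Each ungapped eight-base word and its reverse complement, pooled, received an E-score from the Universal PBM Analysis Suite. Underlying scans, normalised with masliner, recorded fluorescent anti-GST bound to GST-tagged yeast transcription factors. These were applied at about 100-200 nM to universal all-10-mer Agilent arrays double-stranded by primer extension.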
row,Sequence,PBM E-score
1,AAGCAAGC,-0.122
2,GTAAATAC,-0.094
3,AGTGAGCG,-0.112
4,GAAAAGTA,0.159
5,AGAGCTAG,-0.158
6,GTAGTCAC,2e-05
7,CTAGAGGA,-0.0737
8,CGCTACTC,-0.181
9,ACTTCGAT,-0.00491
10,AAGGGGTG,0.167
11,GCCTGCAA,-0.213
12,AGTGTAGC,-0.0965
13,GATCTGCC,-0.36
14,AAAGAATC,-0.144
15,CCGTTCCC,-0.151
16,GAGCAGCA,-0.119
17,ACAGCAAT,0.0582
18,ATACGATC,0.0949
19,GCGTAGCA,-0.151
20,TAACCCTA,0.462
21,ACCGCCGT,-0.0171
22,TAGTTTAA,0.242
23,AGTGGCCA,0.264
24,CATGCATG,-0.197
25,AACTCATT,-0.108

row,Sequence,PBM E-score
1,CTAAGTAG,0.146
2,AGAATACC,0.172
3,AGTACCGG,-0.02
4,GACCGGGC,-0.177
5,CGAGACTC,-0.0833
6,GAGGTCGC,0.175
7,AATTACCA,0.272
8,GCCCATAA,0.203
9,CGCTTACA,-0.0238
10,GAGACTGA,-0.184
11,CTAACCTA,0.327
12,GAATCGAC,-0.191
13,CTGTAGCC,-0.0519
14,ATTATGTC,-0.202
15,GGGCAGGA,-0.164
16,AAGCTTCC,-0.256
17,GCTCACCA,-0.134
18,TGTAGCAA,0.0751
19,CTTGGGCA,-0.055
20,GCTCCCCA,-0.219
21,CAACATGG,0.058
22,ATGGCACG,-0.305
23,ACCCTGCA,0.394
24,ATAGATTC,-0.0013
25,ATCGGCGA,-0.0893

row,Sequence,PBM E-score
1,AACGATTA,-0.0818
2,ATACGTAT,0.143
3,GGGACGTA,-0.186
4,AAAAGTGT,-0.0724
5,ATTTTACG,0.166
6,CGAATGAG,-0.106
7,ACTGACAT,0.0656
8,GGCTAAAA,0.131
9,CCTCTAAC,0.0622
10,AGACGAGA,-0.193
11,ATAGATCC,0.0139
12,GCCATGTA,-0.0366
13,TAATAACA,0.104
14,ACGATCCA,0.0153
15,AGACAAAG,-0.103
16,CAGTAATC,-0.19
17,AACTTTAT,0.0578
18,CCACTCCG,-0.145
19,AAGGTTGG,0.281
20,GATTGAGA,0.109
21,GTATTGGA,-0.131
22,AAGCTACG,-0.207
23,CTTAGTCA,-0.129
24,AACGATAC,0.14
25,GCCGAAAC,-0.0197

row,Sequence,PBM E-score
1,GCATCGCA,-0.193
2,AATTAGAT,0.228
3,GATAGTCC,-0.115
4,GCAATGCC,-0.104
5,CCACGTAA,-0.086
6,ACCGGATC,-0.112
7,GGACAAGA,-0.152
8,ATATTCAA,0.0621
9,CCTAAGAA,0.162
10,GTCCCCCA,-0.185
11,CTACACAC,0.0068
12,CCCGTAGC,-0.177
13,AATAAGCG,-0.0136
14,AATTCACA,0.157
15,GACGGGGC,-0.158
16,CAACGTTA,0.176
17,GTATTCCA,0.00902
18,CGAAGTGC,-0.11
19,CCTAGGCG,-0.181
20,TTACTAAA,0.267
21,ATAATGGA,0.042
22,AATAAAAC,0.228
23,GGCAAGTA,-0.0375
24,GTCAGAAA,0.109
25,ACACAACC,0.291

row,Sequence,PBM E-score
1,CATGATTC,-0.0842
2,CGTGCAGC,-0.252
3,ATTACTAA,0.175
4,GGGGGCCA,-0.17
5,ACCCATTC,0.131
6,ATACTATG,0.0167
7,ACATGCTG,-0.135
8,CATTTGGA,0.072
9,AGAGTTCA,-0.195
10,CTAAGTTC,-0.0514
11,AGGGCTGG,-0.114
12,AACATATA,0.0133
13,CGGGGGGA,-0.309
14,GACCCGTC,-0.104
15,GGAGATCC,-0.0331
16,AATGTCTA,0.00891
17,TTGCAAAA,0.179
18,CACCGACC,-0.0271
19,CAAGCAAG,-0.107
20,AATGTTAA,-0.132
21,ACTGCGAT,0.00465
22,AGACCGCA,0.0823
23,AGCTCCAA,-0.0738
24,CCTGGCAA,-0.0449
25,GGCCTCGA,0.00761

row,Sequence,PBM E-score
1,ATTACCGC,0.217
2,GTCACTAA,0.234
3,ATCAACCC,0.265
4,GCTTCCCC,-0.372
5,AGGCGCGA,-0.143
6,TCAAGGGA,0.127
7,CATTTCCG,0.0753
8,ACCCCACA,0.3
9,TAGTCTCA,0.0559
10,AAGGGTGC,0.134
11,CAAAAAGA,0.00752
12,CGTTAGGC,-0.00344
13,CTACGACA,-0.0729
14,CCCGCCAG,-0.098
15,ACCCAGAG,0.279
16,CTCGGAGC,-0.0875
17,AACCTACT,0.135
18,CAGTCCCG,-0.172
19,CGTGTCAA,-0.0811
20,GCGATTAA,0.078
21,AACTATAT,0.162
22,AGTAGCTG,-0.159
23,CGTGCTAG,-0.268
24,GAGGCGTA,-0.162
25,ATCATCTG,-0.0293

row,Sequence,PBM E-score
1,AAGATTTC,0.0883
2,ACCATTTG,0.221
3,TCAGACCA,0.0492
4,GAACTAAA,0.164
5,AGCTTGAA,-0.179
6,CCTTATGA,0.181
7,CCTTTCAG,0.0739
8,CAAGTTAC,0.0439
9,GGAGCGCA,-0.242
10,GTTTGGAA,0.116
11,CGCTTCCA,-0.202
12,ATTTTACC,0.216
13,CGCGACAC,-0.0113
14,GGACAGAC,-0.0786
15,ATAGGCGG,-0.108
16,CGAGGAAG,-0.213
17,GAAGGATC,-0.167
18,ACCACGTA,-0.0822
19,AGTGCGTA,-0.174
20,ACTTCTCA,-0.0742
21,GACAGTGC,-0.167
22,CGTGAGCA,-0.131
